Laboratory results as given in PubChem BioAssay AID1963576 (National Center for Advancing Translational Sciences (NCATS), 2024).
Screen size: about 46,000 compounds; about 60 (0.1%) were called active. Not shown: some 3% with an inconclusive outcome. Calls follow the shape of the dose curve; as a rule, active = well fitted inhibition curve with a large enough effect; inconclusive = small, poorly fitted or top-dose-only effect; inactive = no such curve, though single readings can be large or run the other way. Some of the results follow.

Assay: Primary qHTS assay for Inhibitors of ovarian cancer metastasis using an organotypic tumor microenvironment (TME) model. Also: nearly all actives have a fitted effect of over 65% in size.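 As to activity change, negative = inhibition: plate controls were DMSO wells for no effect and tomatine positive control wells for full effect.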
Conditions: SKOV3ip1-GFP adhesion/invasion on 3D omental model, fluorescence; series mostly up to 45.8 µM; activity change, negative = inhibition: at the top concentration
Summary of the method: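 Primary human omental fibroblast/mesothelial 3D culture pre-formed 48 h. SKOV3ip1-GFP cells added with compounds (0.36-46 umol/L), incubated 2 h RT/16 h 37 C, fixed; GFP cells quantified at 488/509 nm.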

Activity change, negative = inhibition, inactive:
CCCCOC(=O)c1ccc(NC(=O)c2cc3c(=O)n4cccc(C)c4nc3n2C)cc1 2.92%, Cc1nn2c(=O)cc(COC(=O)c3ccc(NC(=O)C4CCCCC4)cc3)nc2s1 -15.7%, O=C(Nc1ccc(F)cc1F)c1cc(-c2ccccc2O)no1 0.574%, COc1cc(NC(=O)Cn2nc(C(F)(F)F)c3c2CCCC3)c(OC)cc1Cl -6.16%, CCOc1ccc(CNC(=O)c2ccc(-c3nc(CS(=O)(=O)c4ccccc4)c(C)o3)cc2)cc1 -25.4%, O=C(CSc1nc(=O)[nH]c2c1CCCC2)Nc1ccccc1C(F)(F)F -0.644%, CCOC(=O)C1CCN(CCC(=O)Nc2ccc(Br)c(C)c2)CC1 9.4%, Cc1oc(C)c2c(=O)cc(-c3ccc4c(c3)OCO4)cc(OC(=O)c3ccccc3Br)c12 -17.4%, CCOc1cccc(C2c3c(oc4ccc(F)cc4c3=O)C(=O)N2CCc2ccc(OC)cc2)c1 (stereo unspecified) 3.22%, Cc1ccc(CN(C(=O)Nc2cccc(Cl)c2)c2ccccn2)cc1 -0.058%, CCNC(=O)Cn1c(-c2cccs2)cc2ccccc21 6.67%, COc1ccccc1N1CCN(c2csc3ccc(Cl)cc3c2=O)CC1 -3.27%, CCOc1ccccc1NC(=O)Cn1ccn(-c2ccccc2)c(=O)c1=O -3.96%, CCn1ccc2cc(S(=O)(=O)N3CCC(C(=O)NCc4cccc(C)c4)CC3)ccc21 -8.73%, COc1cc(OC)c(NC(=O)c2cc(CN3CCOCC3)on2)cc1Cl 19%, COc1ccc(S(=O)(=O)N2CCN(c3ccccc3OC)CC2)cc1-c1noc(C)n1 -0.665%, Cc1ccc(Cn2c(-c3ccccc3)nc3ccccc32)cc1 -14.2%, O=C(CN1C(=O)C2CCCCN2c2ccc(C(=O)N3CCCC3)cc21)NCc1cccc(Cl)c1 (stereo unspecified) -1.8%, Cc1ccc(-c2c(C(=O)Nc3ccc(F)c(F)c3)oc(=O)c3ccccc23)cc1 1.32%, O=C(NCCSCc1ccc(Cl)cc1)C1CCN(S(=O)(=O)Cc2ccccc2)CC1 -8.98%, CCOc1ccc(CNS(=O)(=O)c2c(C(=O)N3CCCCCC3)c(C)n(C)c2C)cc1OC -9.44%, O=C(Nc1c(Cl)cncc1Cl)c1ccc(OC(F)F)c(OCC2CC2)c1 37.5%, Cc1ccc(Cl)c2sc(NC(=O)CS(=O)(=O)c3ccc(Cl)cc3)nc12 3.91%, CCN(CC)S(=O)(=O)c1ccc2c(c1)c(=O)c(C(=O)NCc1ccccc1)cn2C 5.14%, Cc1cccc(N2CCN(C(=O)CSCc3ccc(F)cc3)CC2)c1C 20.5%, CCCCN(C)C(=O)C1CCCN(c2ncnc3onc(-c4ccc(F)cc4)c23)C1 (stereo unspecified) 10.5%, COc1ccc(-c2cn3nc(N4CCC(C(=O)Nc5cccc(Cl)c5)CC4)sc3n2)cc1 7.09%, Cc1ccc(CNC(=O)Cc2coc3cc(C)cc(C)c23)cc1 1.82%, Cc1ccc(NC(=O)Nc2nnc(N3CCCC3)s2)c(C)c1 13.8%, CCOc1cccc(CC(=O)Nc2ccc3nc(N4CCCCC4)cc(C)c3c2)c1OCC -15.7%, CC(=O)N1CCCc2cc(S(=O)(=O)N3CCC(C(=O)NCc4ccc(N(C)C)cc4)CC3)ccc21 -2.61%, COc1cc(CN(CC2CCCO2)C(=O)c2ccc(F)cc2)cc(OC)c1OC (stereo unspecified) 6.08%, O=C(NCc1ccccc1)c1ccc(NC(=O)c2nsc3ccccc23)cc1 -26.9%, COc1ccccc1CNC(=O)c1ccc(CS(=O)(=O)c2ccccc2C)o1 -4.93%, COc1ccc(CNC(=O)CCC(=O)N2CC3CCCN3c3ccccc32)cc1 (stereo unspecified) 4.17%, CC(C)c1nc2ccc(C(=O)NCCCN3CCN(c4ccccc4F)CC3)cc2o1 -12%, COC(=O)c1ccc(-n2nnc(-c3nc(-c4ccc5c(c4)OCO5)no3)c2C)cc1 -4.31%, CC(=O)NCCNc1nc2c(S(=O)(=O)c3ccc(C)c(C)c3)nnn2c2ccc(Cl)cc12 0.792%, Cc1cc(Br)ccc1NC(=O)CCS(=O)(=O)c1cccc2nsnc12 8.42%, CCOC(=O)c1ccc(NC(=O)C2CCCN(c3ccc(Sc4ccc(C)cc4)nn3)C2)cc1 (stereo unspecified) 0.923%, CCC(=O)N1CCc2cc(S(=O)(=O)NCCC(=O)NCc3ccccc3Cl)ccc21 -6.66%, Cc1ccccc1-c1noc(C(C)NC(=O)c2ccco2)n1 (stereo unspecified) 147%, COc1ccccc1CNC(=O)C(CC(C)C)NS(=O)(=O)c1ccc2c(c1)oc(=O)n2C (stereo unspecified) 21.5%, CCOc1ccc2nc(NC(=O)CS(=O)(=O)c3ccc(Cl)cc3)sc2c1 1.69%, CCCS(=O)(=O)Nc1ccc(F)c(C(=O)c2c[nH]c3ncc(-c4ccc(Cl)cc4)cc23)c1F -9.38%, Cc1ccc(C(C)C)c(OCC(=O)Nc2ccc(S(=O)(=O)Nc3onc(C)c3C)cc2)c1 -5.41%

outcome, inactive:
Cc1ccc(NC(=O)Cn2c(=O)n(CCCCC(=O)NCCc3ccccc3)c(=O)c3ccccc32)c(C)c1, Cc1ccc(NC(=O)C(NS(=O)(=O)c2ccc3c(c2)CCC(=O)N3)c2ccccc2)cc1C (stereo unspecified), COc1ccc(NC(=O)C2CCN(S(=O)(=O)c3ccc4c(c3)CCCC(=O)N4)CC2)cc1Cl, COc1ccc(NC(=O)c2nnn(Cc3nc(-c4cc(Br)ccc4OC)oc3C)c2C)cc1, COc1ccc(Nc2cc(C(=O)NC3CCCC3)c3ccccc3n2)c(OC)c1, CCCCNC(=O)c1cc(Sc2ccc(OCC)cc2)nc2ccccc12, Cc1ccc(C)c(Cn2c(=O)n(CCCCC(=O)NCc3ccccc3Cl)c(=O)c3ccccc32)c1, CCn1ccc2cc(S(=O)(=O)N3CCCN(C(=O)NCC(C)C)CC3)ccc21, Cc1ccc(-c2nc3ccccc3n3c(-c4ccccc4)c4c(=O)n(C)c(=O)n(C)c4c23)cc1, COc1cc(/C=C(\C#N)c2nc3ccccc3c(=O)[nH]2)cc(OC)c1OC, CCn1cc(C(=O)NCc2ccc(C)cc2)c(=O)c2cc(S(=O)(=O)N3CCC(C)CC3)ccc21, CCN(C(=O)CN(C)S(=O)(=O)c1ccc2c(c1)c(=O)n(C)c(=O)n2C)c1ccc(OC)cc1, Cn1c(=NC(=O)c2ccc3c(c2)OCCO3)sc2cc(S(C)(=O)=O)ccc21, N#Cc1ccc(CN2C(=O)c3ccccc3Sc3ccc(C(=O)OCc4ccco4)cc32)cc1, Cc1ccc(C2c3c(oc4ccccc4c3=O)C(=O)N2c2ccc(C)cn2)cc1 (stereo unspecified)
